Results as given in PubChem BioAssay AID1477 (National Center for Advancing Translational Sciences (NCATS), 2009).
Out of some 230,000 compounds screened, fewer than 10 were called active. Inconclusive means that the source gave no clear call. Such entries were picked first, then a sample of the others. Calls follow the shape of the dose curve; as a rule, active = well fitted curve in the direction sought with a large enough effect; inconclusive = small, poorly fitted or top-dose-only effect, or effect the other way, or another doubt; inactive = no such curve, though single readings can be large or run the other way. No potency is given beside an inconclusive call; the fits are too rough.

molecular target: Runt-related transcription factor 1 (Homo sapiens) + Core-binding factor subunit beta (Homo sapiens) (UniProt Q01196+Q13951); assay: qHTS Assay for Compounds Blocking the Interaction Between CBF-beta and RUNX1 for the Treatment of Acute Myeloid Leukemia; conditions: AlphaScreen CBFb-His/RUNX1-biotin binding, biochemical; series mostly up to 59.8 µM
In short: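 Room-temperature protein-protein interaction test with 30 nM each of His-tagged CBF-beta and biotinylated RUNX1, 15 min with compound, then 90 min with nickel plus streptavidin beads. Signal read in AlphaScreen mode.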

Chain of UniProt Q01196 (Q01196 whole entry, looked up): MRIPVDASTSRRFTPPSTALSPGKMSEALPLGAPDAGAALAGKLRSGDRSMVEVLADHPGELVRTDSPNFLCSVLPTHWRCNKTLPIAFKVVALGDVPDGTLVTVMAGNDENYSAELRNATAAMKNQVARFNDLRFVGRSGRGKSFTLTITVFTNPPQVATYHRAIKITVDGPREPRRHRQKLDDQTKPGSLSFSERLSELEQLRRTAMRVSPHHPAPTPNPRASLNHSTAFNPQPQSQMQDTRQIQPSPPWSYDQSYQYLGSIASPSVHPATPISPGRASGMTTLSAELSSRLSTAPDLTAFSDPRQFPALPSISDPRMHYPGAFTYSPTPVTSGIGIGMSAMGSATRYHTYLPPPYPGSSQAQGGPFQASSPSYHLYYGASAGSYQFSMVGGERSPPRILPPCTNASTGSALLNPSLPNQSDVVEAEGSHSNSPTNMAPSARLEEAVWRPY
Chain of UniProt Q01196 (Q13951 whole entry, looked up): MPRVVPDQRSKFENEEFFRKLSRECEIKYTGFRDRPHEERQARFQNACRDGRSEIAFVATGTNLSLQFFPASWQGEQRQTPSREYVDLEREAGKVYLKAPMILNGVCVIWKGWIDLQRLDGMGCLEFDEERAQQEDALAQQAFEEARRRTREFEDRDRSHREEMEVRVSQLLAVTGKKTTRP

Compound	Potency
COc1ccc(-c2n[nH]c(C)c2-c2cnn(-c3ccccc3)c2)c(O)c1C	inactive
O=C(COC(=O)c1cccc(C(F)(F)F)c1)NCc1ccc(Cl)cc1	inactive
CC(=O)c1sc2nc(-c3ccc(C)cc3)c3c(c2c1N)CCCC3	inconclusive [activator, partial curve]
O=C(C1=C[C@H](C2CC2)C[C@H](OCCCCO)O1)N1CCOCC1	inconclusive [activator, full curve, poor fit]
Cc1ccc(-c2cc(C(F)(F)F)c(C#N)c(=O)[nH]2)cc1	inconclusive [activator, single point]
O=S(=O)(CCc1nc2ccccc2s1)c1ccc2ccccc2c1	inconclusive [activator, single point]
Cc1cc2cc(C(c3nnnn3Cc3ccco3)N3CCc4ccccc43)c(=O)[nH]c2cc1C (stereo not given)	inconclusive [inhibitor, single point]
O=c1c2ccccc2ncn1CCCSc1ccccc1	inactive
COC(=O)[C@@H]1[C@@H]2C[C@H]3c4[nH]c5cc(OC)ccc5c4CCN3C[C@@H]2C[C@H](OC(=O)/C=C\c2cc(OC)c(OC)c(OC)c2)[C@H]1OC	inconclusive [inhibitor, single point]
COc1ccc2c(c1)CCC1=C2NC(=S)NC1c1ccc(N(C)C)cc1 (stereo not given)	inconclusive [inhibitor, single point]
Cc1cc2oc(=O)cc(CN3CCCc4ccccc43)c2cc1C	inactive
CC(C)c1nc2scc(-c3ccc(Cl)cc3)c2c(=O)n1N	inactive
Cc1ccc(OCC(=O)c2cc(C)n(-c3ccccc3)c2C)c([N+](=O)[O-])n1	inconclusive [inhibitor, single point]
Fc1ccccc1OCCSc1nc2ccccc2o1	inconclusive [activator, partial curve]
COC(=O)C1=C(C)N(C)C(=O)NC1c1cc2c(cc1[N+](=O)[O-])OCO2 (stereo not given)	inconclusive [inhibitor, single point]
COCCNC(=S)Nc1ccc2[nH]c(=O)[nH]c2c1	inconclusive [activator, single point]
CCOC(=O)C1=C(Nc2ccc(Cl)cc2)OCC1=O	inconclusive [activator, full curve, poor fit]
O=C(CSc1nc(-c2ccco2)cc(C(F)(F)F)n1)NCc1cccs1	inconclusive [inhibitor, single point]
COc1ccc(CNCC(=O)Nc2ccccc2-n2cccc2)cc1	inactive
COc1ccccc1N1CN(Cc2ccccc2)CNC1=S	inconclusive [inhibitor, single point]
COCc1cc(C)nc2sc(C(=O)OC(C)C)c(N)c12	inconclusive [activator, partial curve]
COc1cccc(-c2ccc3c(N)c(C(=O)NC4CC4)sc3n2)c1	inconclusive [activator, partial curve]
COCn1c(-c2ccc(OC)c(OC)c2)nc2ccccc21	inactive
Nc1cc(S(=O)(=O)O)ccc1O	inconclusive [activator, full curve, poor fit]

Compound	Potency
CCOc1ccc(NCc2nc3ccccc3n2CCOc2ccccc2)cc1	inconclusive [inhibitor, single point]
CCN(C(=O)c1coc(=O)c(Br)c1)c1ccc2c(c1)OCO2	inconclusive [inhibitor, single point]
O=C(NN1C(=O)C2C3CCC(O3)C2C1=O)c1ccc(Cl)cc1 (stereo not given)	inactive
CCOc1ccc(C(=O)N/N=C/c2ccc(-c3ccc(S(=O)(=O)Nc4ncccn4)cc3)o2)cc1	inactive
CCOc1ccc(C(=O)NC(=S)N(Cc2ccccc2)Cc2ccccc2)cc1	inconclusive [inhibitor, single point]
Cc1ccc2[nH]c3c(c2c1)SC(C)(C)CC3=O	inactive
O=c1oc2cc(O)ccc2cc1-c1nc2c(s1)CCc1ccccc1-2	inconclusive [activator, single point]
CC(C)c1ccccc1NC(=O)c1cccnc1	inactive
O=C1CCC(C(=O)NCc2cccnc2)N1 (stereo not given)	inactive
N#Cc1nc(Cc2ccccc2)oc1N1CCC(Cc2ccccc2)CC1	inconclusive [inhibitor, partial curve]
COc1cc(OC)c(C(=O)OCC(=O)NCCc2ccccc2)cc1OC	inactive
Cc1ccc(-c2cn3nc(-c4ccccc4)c(-c4ccccc4)nc3n2)cc1	inactive
Cn1ccc2cc3c(cc21)CCN3C(=O)Nc1cccnc1	inconclusive [activator, partial curve, poor fit]
CN1C(=O)/C(=C/C=C/c2ccco2)C(=O)NC1=S	inconclusive [inhibitor, single point]
O=c1c2ccccc2nc(-c2ccccc2)n1/N=C/c1ccc([N+](=O)[O-])cc1	inactive
Oc1ccc(Cl)cc1CNc1ccc(Br)cn1	inconclusive [activator, partial curve]
N#CC1=C(N)N(c2ccccc2C#N)C2=C(C(=O)CCC2)C1c1ccsc1 (stereo not given)	inconclusive [inhibitor, single point]
COc1ccccc1NC(=S)N=Nc1c(O)[nH]c2ccc(Br)cc12	inconclusive [inhibitor, partial curve]
COc1ccc(C(=O)CSc2nc(-c3ccccn3)nc(C)c2Cl)cc1	inactive
O=C(CSc1ncc(-c2ccccc2)n1-c1ccccc1)NCc1ccco1	inconclusive [inhibitor, single point]
COc1cc2nc(/C=C/c3cc(OC)c(OC)c(OC)c3)sc2cc1SC	inconclusive [activator, partial curve]
COc1cc(-c2cc(=O)c3c(O)cc(O)cc3o2)ccc1O	inactive
Cc1cc(C)n2nc(C(=O)OCC(=O)c3cc(C)n(C)c3C)nc2n1	inconclusive [inhibitor, single point]
CCCCOc1ccc(N=Nc2ccc(N)nc2N)cn1	inconclusive [inhibitor, single point]

Compound	Potency
CC(=O)c1sc(NCCOc2ccc(C)cc2)nc1C	inconclusive [activator, single point]
COc1ccc(Br)cc1/C=N/Nc1ccc(Cl)c(C(=O)O)c1	inconclusive [activator, single point]
CCOCCCNC(=S)NCCCNc1nc2c(C)c(C)ccc2cc1C#N	inactive
O=C(NC1CCN(CCc2c[nH]c3ccccc23)CC1)c1ccccc1	inactive
CSc1scc2c1-c1nc(SCC(=O)C(C)(C)C)ncc1CC2	inconclusive [activator, partial curve]
COc1ccc(C2CC(=O)Oc3c(C(CCN4CCOCC4)c4cc(OC)c(OC)c(OC)c4)c(OC)cc(OC)c32)cc1 (stereo not given)	inconclusive [inhibitor, single point]
O=C(N/N=C/c1c(Cl)cccc1Cl)c1ccccc1F	inconclusive [activator, partial curve]
CCN(CC)S(=O)(=O)c1ccc(N2CCCC2)c(NC(=O)c2ccc(OC)cc2OC)c1	inconclusive [inhibitor, single point]
O=C(COc1c(Br)cc(Br)c2cccnc12)Nc1ccccc1F	inactive
Cc1ccc(CNc2ccc3c(c2)OCO3)cc1	inconclusive [inhibitor, single point]
CCN(CC)S(=O)(=O)c1ccc(N2CCN(c3cccc(OC)c3)CC2)c([N+](=O)[O-])c1	inconclusive [inhibitor, partial curve]
O=C(O)c1cccc(N/N=C/c2ccc(F)c(F)c2)c1	inconclusive [inhibitor, partial curve]
Cc1cccc2cc(C#N)c(NCCNS(=O)(=O)c3ccc4c(c3)OCCO4)nc12	inconclusive [activator, single point]
CN(C)/C=N/c1nc(-c2ccc3c(c2)OCO3)cs1	inconclusive [activator, single point]
O=[N+]([O-])c1ccc(N2CCCC2)cc1N1CCCC1	inconclusive [inhibitor, single point]
Cc1cc(N)c2ccccc2[n+]1CCCCCCCCCC[n+]1c(C)cc(N)c2ccccc21	inconclusive [inhibitor, single point]
CCCCNc1nc(-c2ccccc2)c(C(=O)OCC)cc1C#N	inconclusive [activator, partial curve]
Cc1cc(/C=N/NC(=O)c2ccccn2)c(C)n1-c1cccc([N+](=O)[O-])c1	inconclusive [inhibitor, partial curve]
CCn1c2ccccc2c2cc(NC(=O)Cc3ccc(S(=O)(=O)N4CCOCC4)s3)ccc21	inconclusive [inhibitor, single point]
CN(Cc1cn(C)nc1-c1ccc(Oc2ccccc2)cc1)Cc1cnc2ccccn12	inactive
CCCCC1(C)OC(=O)C(=Cc2ccc(-c3ccc(Cl)c(C(=O)O)c3)o2)C(=O)O1 (stereo not given)	inconclusive [inhibitor, single point]
O=[N+]([O-])c1ccc(N2CCOCC2)cc1NC(c1ccccc1)c1ccccc1	inconclusive [inhibitor, partial curve]
